From PubChem BioAssay AID602156 (GNF / Scripps Winzeler lab, 2011)
The list shows a part of the results. Shown are side measurements of this screen, not its main read-out; they come without a call.

Assay: Plasmodium liver-stage growth inhibition, dose response, imaging, Malaria Box, P. yoelii, HepG2-A16-CD81EGFP (AID 602156);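 also: infected cells exposed to compound for 48 hours before fixation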
Conditions: P. yoelii liver stage in HepG2-A16-CD81EGFP, measured here: liver parasite size at 10 uM

Row | SMILES | parasite size [um]
1 | Cn1ncnc2c(=O)n(C)c(=O)nc1-2 | 12.5
2 | CCc1cc2c(cc1-c1csc(N=C(N)N)n1)C(C)(C)CCC2(C)C | 92.3
3 | CCCCCCCc1cc(O)c2c3c(c(=O)oc2c1)CCC(C)C3 (stereo unspecified) | 31.5
4 | C[C@@H]1C[C@@H]([C@H](O)CC2CC(=O)NC(=O)C2)C(=O)[C@@H](C)C1 | 14.6
5 | CCCN[P+](CC(C)C)(NCCC)NCCC | 27.2
6 | CCOC(=O)CN(N=O)C1=C(N2CC2)C(=O)c2ccccc2C1=O | 35.8
